# Measured values published in ChEMBL document CHEMBL4888484, “Replenishing the malaria drug discovery pipeline: Screening and hit evaluation of the MMV Hit Generation Library 1 (HGL1) against asexual blood stage Plasmodium falciparum ,using a nano luciferase reporter read-out” (2022).
# The whole screen tested about 150,000 compounds, of which about 540 (0.36%) showed an effect of 50% or more. This is one part of the list.
# Tested on: Plasmodium falciparum
# Experiment: Primary screen in NF54 nanoGlo assay, in single point, at 2uM, 72h; a lower Z score goes with more inhibition
# Assay type: functional, Erythrocyte
# Details: timepoint 72 hour
Compound,% Inhibition,Z score
COC(=O)c1nc(N)n(C(=O)c2ccccc2)n1,-10%,0.83
O=C(Nc1cccc(-c2cn[nH]c2)c1)c1cnns1,-6%,1.16
CCN(CC)[C@H](CNC(=O)C1CCC1)Cc1ccccc1,2%,-0.29
Cc1cc(C(=O)NC2(c3ncon3)CCOCC2)c(Cl)cc1F,-1%,0.12
Cc1ccc(C)c(S(=O)(=O)NCCNC(=O)NCc2cnn(C)c2)c1,-3%,0.34
C[C@H](NC1CCN(C)CC1)c1cc2cc(Br)ccc2[nH]1,21%,-3.73
CCNC(=O)[C@@H]1CCN(c2ccccc2C)C1=O,-9%,0.84
CN(C(=O)[C@@H]1Cc2ccccc2O1)c1ncccc1F,-8%,1.19
CCc1cnc(C)nc1N[C@H]1C[C@@H](c2nnc(CO)n2C)C1,0%,0.05
O=C1NC2(CCCC2)C(=O)N1CC(=O)N1c2ccccc2CCc2ccccc21,0%,-0.03
COCCC1(c2nc(-c3ccc(C(N)=O)cc3)no2)CCCC1,-7%,0.8
CC(C)(C)OC(=O)NC(C)(C)c1noc(-c2ccc3[nH]cnc3c2)n1,-9%,1.6
CCc1cc(N(CCC#N)CCC#N)n2ncnc2n1,4%,-0.7
Cc1nc(CC(=O)N(C)Cc2ccc(-n3cccn3)cc2)cs1,-10%,1.71
CC1CCN(S(=O)(=O)c2ccc(-c3noc(/C=C/c4ccco4)n3)cc2)CC1,-5%,0.87
CC(C)(C)CCC(=O)NCCCc1nnn[nH]1,-9%,1.19
Cc1cc(S(=O)(=O)NCc2nc(C(=O)N3CCC(C)CC3)c(C)o2)ccc1Cl,-7%,0.94
CN(C)c1ccccc1C(=O)N1CCN(C)[C@H](c2ccccc2)C1,-5%,1.02
CN(CCS(=O)(=O)c1ccccc1)Cc1nncn1C,-2%,0.44
COc1ccc(NC(=O)Nc2c(-c3cccc(OC)c3)n[nH]c2C)cc1,2%,-0.26
Cc1cccc(C(=O)NCCn2ccnc2)n1,14%,-1.21
O=C1NCCCCC1NC(=O)N1CCCC1c1ccc2c(c1)OCCO2 (stereo not given),-7%,1.17
O=C1CCC(NC(=O)NC2CCN(c3ccccc3Cl)C2=O)C(C2CC2)N1 (stereo not given),-16%,2.38
Cc1cccc(C)c1NC(=O)Cn1cnc2c(c(C)c(C)n2-c2ccccc2)c1=O,8%,-0.81
Cc1cc(NC(=O)CN2CCN(c3nccc4sccc34)CC2)n(C)n1,-14%,1.79
Cc1c(O)cccc1C(=O)N1CCN(CC2CC2)[C@@H]2CS(=O)(=O)C[C@@H]21,-8%,1.35
CC(C)(C)[C@H]1OCC[C@@H]1c1noc(-c2cccnc2)n1,-9%,1.26
Cc1cc(Oc2ccc(-n3ncc4ccccc43)cc2)n2ncnc2n1,-5%,0.62

Compound,% Inhibition,Z score
NS(=O)(=O)[C@H]1CCN(c2ncncc2Br)C1,-8%,0.98
Cc1ccncc1CN(C)C(=O)[C@]1(O)CCc2cc(Br)ccc2C1,-5%,1.08
CC#CC(=O)N1C[C@H](NC(=O)OC(C)(C)C)[C@@H](c2cccc(F)c2)C1,2%,-0.26
CC[C@@H](C(=O)Nc1cc(F)ccc1F)n1cnc2nc(N3CCCCC3)ncc2c1=O,29%,-3.24
CCOc1cccc(CNC(=O)c2ccc(-c3ccsc3)nc2)c1,-1%,0.13
COc1cccc2sc(N(C)CC(=O)Nc3ccc4c(c3)OCO4)nc12,-12%,2.34
COc1cccc(NC(=O)N2C[C@@H]3C[C@H](NS(C)(=O)=O)[C@H]2C3)c1,37%,-4.19
COCCn1cc(CC(=O)N2CCOCC2)c2cccnc21,-9%,1.07
COc1cc(NC(=O)c2sc(N(C)C)nc2C)cc(OC)c1,-10%,0.98
O=C(CN1CCCC1=O)N1CCC(Cc2ccccc2)CC1,-9%,1.1
CC1CCCC(C)N1S(=O)(=O)c1ccc(NS(=O)(=O)c2ccc3c(c2)CC(=O)N3C)cc1 (stereo not given),-11%,1.39
O=C(CCC1CCN(C(=O)C2=CCCCC2)CC1)Nc1ccc2c(c1)OCCO2,1%,-0.17
Cc1ccc(Cn2cnc3c2c(=O)n(CC2CC2)c(=O)n3-c2cccc(Cl)c2)cc1,-16%,1.49
O=C(CN(C1CCN(Cc2ccccc2)CC1)S(=O)(=O)c1ccccc1)N1CCNCC1,5%,-0.56
CS(=O)(=O)N1CCN(C(=O)c2ccc(Oc3nccs3)cc2)CC1,-7%,1.17
Cn1ccnc1CN(CCO)CC(=O)NC1CCCCCCC1,-4%,0.57
O=C(c1cc2c(s1)CCCC2)N1CCN(c2ncccn2)CC1,-7%,0.74
CCc1cc(-n2ccc(C)n2)ccc1NC(C)=O,-6%,0.96
COc1cc([C@H]2CC(=O)Nc3c2c(C)nn3-c2ccc(Cl)cc2)ccc1O,-1%,0.07
Cc1[nH]ncc1C(=O)N[C@H]1CCCC[C@@H]1F,-5%,1.05
CCOC1CC(NCC(O)c2ccco2)C12CCCC2 (stereo not given),-6%,0.87
CC(C)(C)C1OCCCC1CN=C(N)N1CCOCC1 (stereo not given),-20%,1.79
COCCN1C(=O)C[C@H](C(=O)NCc2ccc(C)nc2)[C@H]1c1nccn1C,-5%,0.72
COc1ccc(CCNc2nc3ccccn3n2)cc1,-6%,1.13
O=C(NCCc1n[nH]c(Cc2cccc(Cl)c2)n1)c1ccc(Cl)cc1,2%,-0.44
OC1(c2ccccc2)Cc2cccc[n+]2C1c1ccccc1 (stereo not given),-2%,0.14
COc1nc(NC(=O)[C@H](C)c2c(F)cccc2F)n[nH]1,-9%,1.26
